Measurements taken from PMC4764768.
No constants are given. Whether binding was seen depends on the method and setting. Binding seen in cells or lysates may run through a third protein. Some binding calls cover weakened binding; strength is not graded here. For some of these results: Tags and fused reporters may be left off the sequences shown.

Sequences of proteins named here, by UniProt entry; tags and fusion partners are left off.
UniProt P03126: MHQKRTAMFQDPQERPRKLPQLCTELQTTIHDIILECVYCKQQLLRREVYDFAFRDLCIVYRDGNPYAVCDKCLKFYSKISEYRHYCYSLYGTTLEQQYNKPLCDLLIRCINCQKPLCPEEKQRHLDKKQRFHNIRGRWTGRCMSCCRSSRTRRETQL
UniProt Q5K651: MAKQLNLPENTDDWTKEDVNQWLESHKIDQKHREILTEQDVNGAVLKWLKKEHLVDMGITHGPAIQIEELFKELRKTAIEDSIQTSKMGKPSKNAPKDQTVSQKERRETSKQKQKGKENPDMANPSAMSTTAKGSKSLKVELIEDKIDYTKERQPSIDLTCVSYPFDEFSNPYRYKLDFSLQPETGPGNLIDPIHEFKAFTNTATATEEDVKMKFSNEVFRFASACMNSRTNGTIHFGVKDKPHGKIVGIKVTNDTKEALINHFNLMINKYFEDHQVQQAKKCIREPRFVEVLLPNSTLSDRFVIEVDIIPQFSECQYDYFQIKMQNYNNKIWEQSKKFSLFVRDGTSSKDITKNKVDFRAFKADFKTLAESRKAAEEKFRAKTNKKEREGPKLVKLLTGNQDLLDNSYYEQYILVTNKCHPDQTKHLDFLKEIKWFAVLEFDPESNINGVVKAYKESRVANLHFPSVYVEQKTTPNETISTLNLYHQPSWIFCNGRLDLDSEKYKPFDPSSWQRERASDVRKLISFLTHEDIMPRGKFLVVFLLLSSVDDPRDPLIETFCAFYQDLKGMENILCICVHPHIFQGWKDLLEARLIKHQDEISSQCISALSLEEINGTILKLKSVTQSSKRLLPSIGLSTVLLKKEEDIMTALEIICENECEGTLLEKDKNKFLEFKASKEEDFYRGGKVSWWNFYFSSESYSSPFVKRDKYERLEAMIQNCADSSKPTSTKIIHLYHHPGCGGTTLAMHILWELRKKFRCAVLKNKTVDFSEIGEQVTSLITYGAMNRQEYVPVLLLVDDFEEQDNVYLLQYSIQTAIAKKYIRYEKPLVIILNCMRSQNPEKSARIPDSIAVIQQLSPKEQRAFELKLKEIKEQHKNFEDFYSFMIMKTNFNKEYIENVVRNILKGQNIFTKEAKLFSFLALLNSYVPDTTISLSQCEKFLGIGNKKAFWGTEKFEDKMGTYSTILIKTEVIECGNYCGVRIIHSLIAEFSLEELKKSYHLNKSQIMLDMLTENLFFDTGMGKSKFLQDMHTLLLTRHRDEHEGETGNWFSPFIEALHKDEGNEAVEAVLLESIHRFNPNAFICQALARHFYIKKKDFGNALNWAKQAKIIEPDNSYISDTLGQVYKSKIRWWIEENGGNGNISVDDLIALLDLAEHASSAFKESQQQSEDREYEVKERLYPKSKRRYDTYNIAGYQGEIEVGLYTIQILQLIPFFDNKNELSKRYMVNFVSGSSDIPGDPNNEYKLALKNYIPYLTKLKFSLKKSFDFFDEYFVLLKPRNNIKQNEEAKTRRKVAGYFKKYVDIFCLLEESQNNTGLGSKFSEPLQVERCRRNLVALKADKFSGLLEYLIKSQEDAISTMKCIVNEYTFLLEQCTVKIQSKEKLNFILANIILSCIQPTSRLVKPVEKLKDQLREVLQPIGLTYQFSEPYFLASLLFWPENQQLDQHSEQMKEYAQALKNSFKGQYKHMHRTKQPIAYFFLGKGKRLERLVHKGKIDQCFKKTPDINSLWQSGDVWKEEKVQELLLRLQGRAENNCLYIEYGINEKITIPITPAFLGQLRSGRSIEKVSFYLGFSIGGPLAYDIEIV

Columns and labels:
[1] = target: T1, HA-11E6 (N-terminal HA-tagged HPV-11 E6) in HEK293 cells (human papillomavirus type 11) (UniProt P04019); experiment: co-IP
T1 sequence: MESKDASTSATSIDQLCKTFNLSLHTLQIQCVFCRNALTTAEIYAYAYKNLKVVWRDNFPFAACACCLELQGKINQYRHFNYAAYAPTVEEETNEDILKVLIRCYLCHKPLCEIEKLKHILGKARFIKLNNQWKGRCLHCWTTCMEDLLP

[2] = target: T2, HA-6E6 (N-terminal HA-tagged HPV-6 E6) in HEK293 cells (human papillomavirus type 6 (6b)) (UniProt P06462); experiment: co-IP
T2 sequence: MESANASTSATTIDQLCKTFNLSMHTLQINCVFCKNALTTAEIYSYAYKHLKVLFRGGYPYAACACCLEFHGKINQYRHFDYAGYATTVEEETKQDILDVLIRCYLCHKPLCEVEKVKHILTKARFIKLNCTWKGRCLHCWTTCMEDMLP

[3] = target: T3, HA-11E6 (HA-tagged HPV-11 E6) in N/TERT-1 keratinocytes (human papillomavirus type 11) (UniProt P04019); experiment: proximity ligation
T3 sequence: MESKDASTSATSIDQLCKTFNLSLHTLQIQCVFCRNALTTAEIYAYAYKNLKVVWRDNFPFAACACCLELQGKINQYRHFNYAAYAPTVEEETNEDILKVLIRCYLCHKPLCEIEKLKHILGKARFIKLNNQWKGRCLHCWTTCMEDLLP

[4] = target: HA-16E6 (HA-tagged HPV-16 E6) in N/TERT-1 keratinocytes (human papillomavirus type 16) (UniProt P03126); experiment: proximity ligation
[5] = target: T4, HA-6E6 (HA-tagged HPV-6 E6) in N/TERT-1 keratinocytes (human papillomavirus type 6 (6b)) (UniProt P06462); experiment: proximity ligation
T4 sequence: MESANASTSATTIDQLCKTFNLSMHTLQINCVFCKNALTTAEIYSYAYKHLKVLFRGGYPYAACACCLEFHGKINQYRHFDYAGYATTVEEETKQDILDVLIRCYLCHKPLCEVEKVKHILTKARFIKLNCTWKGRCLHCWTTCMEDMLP

[6] = target: T5, HA-11E6 (HA-tagged HPV-11 E6) in N/TERT-1 keratinocytes (human papillomavirus type 11), P04019; experiment: proximity ligation; settings: remark: other sources report otherwise
T5 chain: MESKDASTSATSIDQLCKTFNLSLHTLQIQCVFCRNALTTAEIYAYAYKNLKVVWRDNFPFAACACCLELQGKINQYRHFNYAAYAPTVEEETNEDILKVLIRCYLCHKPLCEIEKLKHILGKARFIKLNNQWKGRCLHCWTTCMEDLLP

## sterile α motif domain containing 9 (SAMD9), endogenous in HEK293 cells (from UniProt Q5K651 1-1589)
[1]
  binding: binds
[2]
  binding: binds

## sterile α motif domain containing 9 (SAMD9), endogenous in N/TERT-1 keratinocytes (from UniProt Q5K651 1-1589)
[3]
  binding: binds
[4]
  binding: no binding
[5]
  binding: binds

## E6 associated protein (E6AP), endogenous in N/TERT-1 keratinocytes (from UniProt Q05086 1-875)
[5]
  binding: binds

B1: E6 associated protein (E6AP), endogenous in N/TERT-1 keratinocytes, Q05086 1-875 (protein)
chain: MEKLHQCYWKSGEPQSDDIEASRMKRAAAKHLIERYYHQLTEGCGNEACTNEFCASCPTFLRMDNNAAAIKALELYKINAKLCDPHPSKKGASSAYLENSKGAPNNSCSEIKMNKKGARIDFKDVTYLTEEKVYEILELCREREDYSPLIRVIGRVFSSAEALVQSFRKVKQHTKEELKSLQAKDEDKDEDEKEKAACSAAAMEEDSEASSSRIGDSSQGDNNLQKLGPDDVSVDIDAIRRVYTRLLSNEKIETAFLNALVYLSPNVECDLTYHNVYSRDPNYLNLFIIVMENRNLHSPEYLEMALPLFCKAMSKLPLAAQGKLIRLWSKYNADQIRRMMETFQQLITYKVISNEFNSRNLVNDDDAIVAASKCLKMVYYANVVGGEVDTNHNEEDDEEPIPESSELTLQELLGEERRNKKGPRVDPLETELGVKTLDCRKPLIPFEEFINEPLNEVLEMDKDYTFFKVETENKFSFMTCPFILNAVTKNLGLYYDNRIRMYSERRITVLYSLVQGQQLNPYLRLKVRRDHIIDDALVRLEMIAMENPADLKKQLYVEFEGEQGVDEGGVSKEFFQLVVEEIFNPDIGMFTYDESTKLFWFNPSSFETEGQFTLIGIVLGLAIYNNCILDVHFPMVVYRKLMGKKGTFRDLGDSHPVLYQSLKDLLEYEGNVEDDMMITFQISQTDLFGNPMMYDLKENGDKIPITNENRKEFVNLYSDYILNKSVEKQFKAFRRGFHMVTNESPLKYLFRPEEIELLICGSRNLDFQALEETTEYDGGYTRDSVLIREFWEIVHSFTDEQKRLFLQFTTGTDRAPVGGLGKLKMIIAKNGPDTERLPTSHTCFNVLLLPEYSSKEKLKERLLKAITYAKGFGML
[6]
  binding: binds
